Values joined by “and” are separate entries in the source; they are usually repeats but may differ in a detail not shown here. Equal values may be shown once.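 Dose response: 5 concentrations. Exposure: 48 h. Format: 96-well plates. Endpoint: linear interpolation; highest concentration if not reached. GI50 marks 50% less growth. TGI: total growth inhibition.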
Each molecule was assayed on NCI-H322M lung (assay: DTP human tumour cell line panel, 48 h).

First: CC(C)(CO)CNC(=O)c1ccc2[nH]c(O)c(N=Nc3ccc(S(N)(=O)=O)cc3)c2c1
Second: CCn1cc(C(=O)O)c(=O)c2cc(F)c(N3CCN(S(=O)(=O)c4cccc5ccccc45)CC3)cc21
The GI50 of the first is higher: greater than 25 µM for the first, 2.6 µM for the second.

First: COc1cc(CNc2nc3cc(N)cc(N)c3nc2-c2ccccc2)cc(OC)c1
Second: O=C1c2cccc(Oc3ccccc3)c2C(=O)c2cccc(Oc3ccccc3)c21
The GI50 of the first is lower: 44.3 µM for the first, greater than 100 µM for the second.

Going from `CNCc1cccc2c1OCCOCCOCCN(C)S(=O)(=O)c1ccc(cc1)-c1cnc(N)c(n1)C(=O)N2` to `CCN=c1sc2c(n1NC(=O)c1cc3ccc1CCc1ccc(cc1)CC3)C(=O)c1ccccc1C2=O`, the GI50 rises from 1.06 µM to 2.62 µM (2.5-fold).

First: O=C(Nc1cccc(-n2cc(-c3ccncc3)c(-c3cc(O)cc(Cl)c3)n2)c1)c1ccc(N2CCOCC2)c(C(F)(F)F)c1
Second: Cn1nccc1Nc1nccc(-c2ccn([C@H](CO)c3ccc(Cl)c(F)c3)c(=O)c2)n1
The GI50 of the first is 3.1-fold lower: 2.83 µM for the first, 8.91 µM for the second.

Compared with `Cn1c([N+](=O)[O-])cnc1C=C1C(=O)c2ccccc2C1=O`, `O=C1NC(=N[C@@H](CO)c2ccccc2)S/C1=C\c1ccc2ncccc2c1` is 4.3-fold lower in GI50: 19.4 µM for the first, 4.53 µM for the second.

First: N#CC(C(=O)C(=O)Nc1c(Cl)cccc1Cl)c1ccccc1 (stereo not given)
Second: CC1(C)OC[C@@H]([C@@]2(CO[Si](c3ccccc3)(c3ccccc3)C(C)(C)C)CC=CC(=O)O2)O1
The GI50 of the first is higher: greater than 100 µM for the first, 15.5 µM for the second.

`COC(=O)OC1C(O[C@H]2C[C@H]3[C@@H]4CC=C5C[C@@H](O)CC[C@]5(C)[C@H]4CC[C@]3(C)[C@H]2[C@H](C)C(=O)CCC(C)C)OCC(O)C1OC1OCC(O)C(O)C1OC(=O)c1ccc(OC)cc1` (stereo not given in full) and `CCN1C(=S)N(CC)C2C1NC(=S)N2/N=C/C=C/c1ccccc1OC` (stereo not given) are within 1.5-fold of each other in GI50: 0.762 µM for the first, 0.661 µM for the second.

`CC(C)(CO)CNC(=O)c1ccc2[nH]c(O)c(N=Nc3ccc(S(N)(=O)=O)cc3)c2c1` and `Cc1ccc(S(=O)(=O)OCC/C(=C\[Si](C)(C)C)c2ccccc2)cc1` cannot be ordered by TGI: greater than 25 µM for the first, greater than 100 µM for the second.

First: OCc1ccc2c(c1)CC1(C2)Cc2cc3c(cc2C1O)CCC3 (stereo not given)
Second: Cc1ccc2c(c1)CN1c3ccc(C)cc3CN2C1c1ccccc1O
The TGI of the first is lower: 49.8 µM for the first, greater than 100 µM for the second.

First: COc1cccc(C2c3cc4c(cc3OC(O)C2C)OCO4)c1OC (stereo not given)
Second: COC(=O)C1C(=O)O[C@@H](c2ccc3c(c2)OCO3)C1C(=O)OC (mixture of isomers)
The TGI of the first is lower: 46.6 µM for the first, greater than 100 µM for the second.

Compared with `CN(C)CCn1c(=O)c2ccc(NCCCN(C)CCCNc3ccc4c(=O)n(CCN(C)C)c(=O)n5c6ccc(O)cc6c(=O)c3c45)c3c(=O)c4cc(O)ccc4n(c1=O)c23`, `CCn1cc(C(=O)O)c(=O)c2cc(F)c(N3CCN(S(=O)(=O)c4cccc5ccccc45)CC3)cc21` is 5.3-fold higher in TGI: 1.52 µM for the first, 8 µM for the second.

`O=c1cc(O)cc2n1CCC2` and `Cc1nnc2n(c1=O)CCCN2C` cannot be ordered by TGI: greater than 100 µM for the first, greater than 100 µM for the second.

`CN(/N=C1\C(=O)Nc2ccccc21)c1ccccc1` and `O=C1CC(c2ccccc2)Oc2ccccc21` (stereo not given) cannot be ordered by TGI: greater than 100 µM for the first, greater than 100 µM for the second.

`COc1cc(CNc2nc3cc(N)cc(N)c3nc2-c2ccccc2)cc(OC)c1` and `COc1cc2ccc3c4cc(OC)c(OC)cc4c[n+](C)c3c2cc1O` cannot be ordered by TGI: greater than 100 µM for the first, greater than 100 µM for the second.

Going from `Cc1c(C)n(-c2ccccc2)c2nc(S(C)=O)nc(S(C)=O)c12` (stereo not given) to `CC1=NN(C(=O)Cc2ccccc2)C(=O)/C1=C\c1ccc(O)cc1`, the TGI rises from 31 µM to greater than 100 µM.

`COCOc1ccc(C(=O)Oc2cccc3c2OC(C)(C)O3)c(OCOC)c1` and `COC(=O)c1ccccc1C1CN=NC12Cc1c(ccc(C)c1C)C2=O` (stereo not given) cannot be ordered by TGI: greater than 100 µM for the first, greater than 100 µM for the second.

`O=[N+]([O-])c1ccccc1C1SCc2nc3ccccc3n21` (stereo not given) and `O=[N+]([O-])c1ccc(C[P+]2(c3ccccc3)CCCCC2)cc1` cannot be ordered by TGI: greater than 100 µM for the first, greater than 100 µM for the second.

`CCOC(=O)c1c(N2CCCC2)[nH]c(=O)c(C(c2ccc(OC)cc2)c2c(O)c(C(=O)OCC)c(N3CCCC3)[nH]c2=O)c1O` and `CCOC(=O)c1csc(NC(=O)C(C)N2CCCC2)n1` (stereo not given) cannot be ordered by TGI: greater than 100 µM for the first, greater than 100 µM for the second.

Going from `O=C(NCc1ccccc1)c1cc2ccccc2oc1=Nc1cccc(C(F)(F)F)c1` to `CC(=O)c1ccc(Oc2c3ccccc3nc3ccccc23)cc1`, the TGI falls from greater than 100 µM to 33 µM.

Going from `CNCc1cccc2c1OCCOCCOCCN(C)S(=O)(=O)c1ccc(cc1)-c1cnc(N)c(n1)C(=O)N2` to `Cc1c(N2CCOCC2)nc2ccc(Cl)cc2c1-c1ccccc1`, the TGI rises from 3.03 µM to greater than 100 µM.

`O=C(/C=C/c1ccc(O)c(O)c1)OCCc1ccc2ccccc2c1` and `O=C1NC(=N[C@@H](CO)c2ccccc2)S/C1=C\c1ccc2ncccc2c1` cannot be ordered by TGI: 24.1 µM for the first, greater than 23.6 µM for the second.

`O=C(Nc1cccc(-n2cc(-c3ccncc3)c(-c3cc(O)cc(Cl)c3)n2)c1)c1ccc(N2CCOCC2)c(C(F)(F)F)c1` and `N#Cc1c(-c2ccc([N+](=O)[O-])cc2)cc(-c2ccc(Nc3ccnc4cc(Cl)ccc34)cc2)[nH]c1=O` cannot be ordered by TGI: greater than 100 µM for the first, greater than 100 µM for the second.

First: Cn1c([N+](=O)[O-])cnc1C=C1C(=O)c2ccccc2C1=O
Second: CCN=c1sc2c(n1NC(=O)c1cc3ccc1CCc1ccc(cc1)CC3)C(=O)c1ccccc1C2=O
The TGI of the first is 10-fold higher: 72.2 µM for the first, 7.25 µM for the second.

`Cn1nccc1Nc1nccc(-c2ccn([C@H](CO)c3ccc(Cl)c(F)c3)c(=O)c2)n1` and `O=C(COc1ccc(OCC(=O)N/N=C/c2ccc(-c3ccc(Cl)cc3Cl)o2)c(Cl)c1)N/N=C/c1ccc(-c2ccc(Cl)cc2Cl)o1` cannot be ordered by TGI: greater than 100 µM for the first, greater than 100 µM for the second.

Compared with `COC(=O)/C=C(\C)CC/C=C(\C)CCC1OC1(C)C` (stereo not given), `COC(=O)OC1C(O[C@H]2C[C@H]3[C@@H]4CC=C5C[C@@H](O)CC[C@]5(C)[C@H]4CC[C@]3(C)[C@H]2[C@H](C)C(=O)CCC(C)C)OCC(O)C1OC1OCC(O)C(O)C1OC(=O)c1ccc(OC)cc1` (stereo not given in full) is lower in TGI: greater than 75 µM for the first, 19.1 µM for the second.

First: N#CC(C(=O)C(=O)Nc1c(Cl)cccc1Cl)c1ccccc1 (stereo not given)
Second: NS(=O)(=O)c1nnc(NC(=O)N(c2ccccc2)c2ccccc2)s1
The TGI of the first is higher: greater than 100 µM for the first, 71.8 µM for the second.

`OCc1cn(Cc2ccccc2)c2ccccc12` and `O=c1oc2ccccc2c(O)c1Cc1ccc(Cc2c(O)c3ccccc3oc2=O)cc1` cannot be ordered by TGI: greater than 100 µM for the first, greater than 100 µM for the second.

Compared with `CC(C)NC(=O)OCc1c(COC(=O)NC(C)C)n(C)c2c1ccc1sccc12`, `NC1=CC(=O)c2c(O)ccc(O)c2C1=O` is lower in TGI: greater than 65.4 µM for the first, 50.8 µM for the second.

Compared with `C[n+]1cc2cc(O)c(O)cc2c2ccc3cc(O)c(O)cc3c21`, `O=C1c2cccc(Oc3ccccc3)c2C(=O)c2cccc(Oc3ccccc3)c21` is higher in TGI: 9.84 µM for the first, greater than 100 µM for the second.

Compared with `CCN1C(=S)N(CC)C2C1NC(=S)N2/N=C/C=C/c1ccccc1OC` (stereo not given), `CC1(C)OC[C@@H]([C@@]2(CO[Si](c3ccccc3)(c3ccccc3)C(C)(C)C)CC=CC(=O)O2)O1` is lower in TGI: greater than 100 µM for the first, 35.1 µM for the second.

Going from `CC(Br)C(=O)NC(CO)C(=O)O` (stereo not given) to `CC(C)C(Br)CCC1=CCC(Br)(Br)C1` (stereo not given), the TGI falls from greater than 100 µM to 30.5 µM.

`N#CNC(N)=NCc1ccccc1` and `COC(=O)C1C(C(=O)OC)C2C(=O)C3C(C(=O)OC)C(C(=O)OC)C3C(=O)C12` (stereo not given) cannot be ordered by TGI: greater than 100 µM for the first, greater than 100 µM for the second.

In the case of `N#Cc1nc2c(S(=O)(=O)c3ccc(Cl)cc3)c(N)n(Nc3cccc(Cl)c3)c2nc1C#N`, the GI50 is reported as 0.12 µM and 0.0147 µM.

Source: PubChem BioAssay (NCI)
